Laboratory results as given in US20060246071A1 (AstraZeneca / MedImmune, published 2006).

Target: T1, recombinant human Angiopoietin-2 (human, UniProt O15123 19-496)
T1 construct: also called Ang-2; rhAng-2
T1 sequence: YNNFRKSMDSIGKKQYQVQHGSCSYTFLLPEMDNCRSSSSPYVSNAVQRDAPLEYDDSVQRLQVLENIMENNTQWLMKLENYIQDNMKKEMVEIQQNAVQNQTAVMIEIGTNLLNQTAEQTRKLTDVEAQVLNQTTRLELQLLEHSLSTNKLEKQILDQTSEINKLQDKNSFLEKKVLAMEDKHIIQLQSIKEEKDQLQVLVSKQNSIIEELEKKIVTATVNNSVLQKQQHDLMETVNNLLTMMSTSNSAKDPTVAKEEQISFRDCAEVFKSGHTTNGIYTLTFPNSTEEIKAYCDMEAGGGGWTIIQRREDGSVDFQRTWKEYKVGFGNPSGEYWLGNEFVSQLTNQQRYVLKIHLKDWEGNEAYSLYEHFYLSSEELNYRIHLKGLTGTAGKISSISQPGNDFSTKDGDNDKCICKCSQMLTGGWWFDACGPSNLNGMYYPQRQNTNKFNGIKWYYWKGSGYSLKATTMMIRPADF
Assay: competition ELISA, Ang-2 on coated Tie2/Fc
Description: 96-well Nunc Immplates™ were coated with 100 μl of recombinant human Tie2/Fc fusion protein (R&D Systems, Inc., Cat. No. 313-TI-100) at 4 μg/ml by incubating overnight at 4° C. The plates were washed four times using Phosphate Buffer Saline (PBS) with a Skan™ Washer 300 station (SKATRON). The wells were blocked by 100 μl of ABX-blocking buffer (0.5% BSA, 0.1% Tween, 0.01% Thimerosal in PBS) for 1 hour.
The plates were incubated at room temperature for two hours before the unbound molecules were washed off. […] After washing twice, the bound Streptavidin was detected by HRP substrate (R&D Systems, Cat. No. DY998). The plates were incubated for 30 minutes before 450 stop solution (100 μl/well, BioFX, Cat #BSTP-0100-01) was added to terminate the reaction. The light absorbance at 450 nm was determined by a Spectramax Plus reader.
Each concentration of the mAb was tested in duplicate. The concentration-response relationship was found by curve fitting using Graphpad Prism™ graphic software (non-linear, Sigmnoid curve). The maximal inhibition (efficacy) and IC₅₀ (potency) were calculated by the software.

B1: mAb 5.78.3 (antibody, V domains shown)
VH: not shown
VL: DIVMTQSPDSLAVSLGERATINCKSSQSVLYSSNNQNFLAWYQQKPGQPPKLLIYWASTRESGVPDRFSGSGSGTDFTLTISSLQAEDVAVYYCHQYYSTPITFGQGTRLEIKR
notes: Variable regions only; hybridoma-derived fully human IgG kappa; also called 5.78.1; x5.78
B1 was tested, and the “Efficacy (ratio of bound Ang-2 with mAbs (30 µg/ml) versus without mAbs)” value was 0.262.
